These results are taken from patent US20110117082A1 (SHANGHAI FUDAN ZHANGJIANG BIO PHARMACEUTICAL, published 2011).

In test [1] the target is T1, tumor necrosis factor α (TNFα) (UniProt P01375 fragment). Kind of test: cell-based or functional assay.
Test [2] deals with T2, LT28-171 (lymphotoxin) (UniProt P01374 62-205).
T2 sequence (looked up): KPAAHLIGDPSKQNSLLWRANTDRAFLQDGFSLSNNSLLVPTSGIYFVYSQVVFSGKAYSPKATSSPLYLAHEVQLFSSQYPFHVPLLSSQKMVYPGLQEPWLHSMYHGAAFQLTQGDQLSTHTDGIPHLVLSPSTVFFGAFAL
Kind of test: cell-based or functional assay.

For test [3], the target named is T1, tumor necrosis factor α (TNFα). Kind of test: SPR, Biacore3000, receptor:Fc amine-coupled to CM5 chip, ligand in flow, 1:1 Langmuir fit.
T1 sequence (P01375 77-233 limits assumed): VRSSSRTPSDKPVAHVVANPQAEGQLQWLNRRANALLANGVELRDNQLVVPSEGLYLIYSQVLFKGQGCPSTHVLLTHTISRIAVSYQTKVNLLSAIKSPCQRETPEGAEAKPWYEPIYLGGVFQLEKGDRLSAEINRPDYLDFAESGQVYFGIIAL
In test [4] the target is T2, LT28-171 (lymphotoxin). The test is described as above.

B1: TNFRp75 (E92N, W89Y): Fc fusion protein (Fc fusion)
chain: LPAQVAFTPYAPEPGSTCRLREYYDQTAQMCCSKCSPGQHAKVFCTKTSDTVCDSCEDSTYTQLWNYVPNCLSCGSRCSSDQVETQACTREQNRICTCRPGWYCALSKQEGCRLCAPLRKCRPGFGVARPGTETSDVVCKPCAPGTFSNTTSSTDICRPHQICNVVAIPGNASMDAVCTSTSPTRSMAPGAVHLPQPVSTRSQHTQPTPEPSTAPSTSFLLPMGPSPPAEGSTGD[letters of human IgG1 Fc omitted]
On to B1, for which the “EC50(ng/ml) of the neutralizing activity of the mutants (Example 9: against the cytotoxicity of TNFα)” value in test [1] was 5.04 ng/mL. The “EC50(ng/ml) of the neutralizing activity of the mutants against LT” value in test [2] is 3.74 ng/mL. In test [3], this molecule returned a dissociation constant (Kd) of 133 pM, a koff of 1.29e-06 s⁻¹ and a kon of 9720 M⁻¹ s⁻¹. For the same molecule, in test [4], the affinity, expressed as Kd, was 87.4 pM; the koff was 1.64e-06 s⁻¹; the kon is 18800 M⁻¹ s⁻¹.
